{"source": "the supplement of paper PMC11417369", "note": "The other results are listed elsewhere or left out."}
{"tested_on": "PfHDP1 homeodomain (GST-tagged)", "experiment": "gcPBM binding intensity (ln(normalized median fluorescence intensity)); higher = stronger DNA binding", "how_it_was_run": "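GST-fused DNA-binding domains of P. falciparum, expressed in E. coli, were applied at about 25 μg on average for 1 h to an Agilent 4 × 180k array of primer-extended double-stranded 36-bp intergenic genomic probes and negative controls. Binding intensity is the highest Masliner-normalised natural-log median intensity across replicate spots of either probe orientation, measured with Alexa488 anti-GST antibody and a 488 nm scan.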"}
{"sequence": "CATACATATATTATTGCACACATATAAAATACCCCC [CACACA_site9292]", "gcPBM binding intensity (ln)": 10.4}
{"sequence": "TACCAATAAATGAAGGTGCGTGCTTGCCTTTGCTAT", "gcPBM binding intensity (ln)": 6.29}
{"sequence": "TTGAATAAATTGGAATAAATATAATAAAATAAGGAA [XGTACX_negctrl_site302]", "gcPBM binding intensity (ln)": 6.81}
{"sequence": "TTGTATAGTCTGATATGTACATATATATATATATAA [XGTACX_site4307]", "gcPBM binding intensity (ln)": 6.89}
{"sequence": "TAGGAATTTAATAAATGTACATATACATAATATATA [XGTACX_site3672]", "gcPBM binding intensity (ln)": 6.12}
{"sequence": "ACCACCAGGAACAAAGCACATTAGGAAAAATAAAAC [XGTACX_negctrl_site228]", "gcPBM binding intensity (ln)": 6.6}
{"sequence": "TATAAAAAATTAAAATTTTTCTTATTTTTTTTAGAT [TGCATGCA_negctrl_site125]", "gcPBM binding intensity (ln)": 6.34}
{"sequence": "TATGCAATATATTATATTCTGTAAATATTATATATT [TGCATGCA_negctrl_site67]", "gcPBM binding intensity (ln)": 6.49}
{"sequence": "TTTTTTAAAATATGGACACACATATATATATCTGTA [CACACA_site5535]", "gcPBM binding intensity (ln)": 6.43}
{"sequence": "ATAATCAACATTAGGTGTACAAAATATGTATGTTTT [XGTACX_site6696]", "gcPBM binding intensity (ln)": 6.8}
{"sequence": "TATATATTTTTTAATTGTACACTTCAAAAACAAAAA [XGTACX_site5595]", "gcPBM binding intensity (ln)": 6.54}
{"sequence": "TTCAAATTTCCACATACACACCTTGTAGATATATAT [CACACA_site7984]", "gcPBM binding intensity (ln)": 6.86}
{"sequence": "AGAATAAATAAATATTGTACATATAAAATATATATA [XGTACX_site896]", "gcPBM binding intensity (ln)": 6.27}
{"sequence": "ATTGAACACATCTATGCATGCACGGAAAAAAGTACA [TGCATGCA_site401]", "gcPBM binding intensity (ln)": 8.5}
{"sequence": "AAAAACTTAATATTGACACACATTTTTAAGAATAAT [CACACA_site4291]", "gcPBM binding intensity (ln)": 6.25}
{"sequence": "GTAGTTATATTAAGGGTGCTTAATTAGATTAAACAA", "gcPBM binding intensity (ln)": 6.04}
{"sequence": "TATATAACTAAAATAACACACATATATAAAAATATA [CACACA_site7416]", "gcPBM binding intensity (ln)": 6.46}
{"sequence": "ATTATAACACTTATTTCATTTGTATGCCCTTTAAAA [CACACA_negctrl_site955]", "gcPBM binding intensity (ln)": 6.73}
{"sequence": "AGACCTATGATATATACACACATATATTTATTTATA [CACACA_site6630]", "gcPBM binding intensity (ln)": 6.62}
{"sequence": "TAATATTTCATTAGGTGTACACTACATAGTAGTAGA [XGTACX_site366]", "gcPBM binding intensity (ln)": 6.5}
{"sequence": "TATAAATATTTTATTGTACACACTTTTTATGAATGA [CACACA_site3136]", "gcPBM binding intensity (ln)": 6.98}
{"sequence": "GTTTGTTTGTTTGTTCGTACATATATAAAATAAAAA [XGTACX_site4731]", "gcPBM binding intensity (ln)": 6.73}
{"sequence": "TGTCACATAATTTATGCACACAATGATTATGCTTAA [CACACA_site2358]", "gcPBM binding intensity (ln)": 9.39}
{"sequence": "AAGTATAAATTAAAATGTACTTATAAAAAAAAAGAA [XGTACX_site7028]", "gcPBM binding intensity (ln)": 6.78}
{"sequence": "CCATATTTCATTAATGAACACACAAAGAGGTATATA [CACACA_site8431]", "gcPBM binding intensity (ln)": 6.94}
{"sequence": "ACATATATTGTACATACACACCTATATAAATATCCT [CACACA_site7503]", "gcPBM binding intensity (ln)": 6.86}
{"sequence": "TATGTATGTATGTATGCATGTGTAACACCTAAATAT [TGCATGCA_site361]", "gcPBM binding intensity (ln)": 7.03}
{"sequence": "TATATATATATACCAACACACATACATATATATATA [CACACA_site8530]", "gcPBM binding intensity (ln)": 8.96}
{"sequence": "TAAAAAATAAAAATTGCACACTAAAAAATTACGCAC [CACACA_site9129]", "gcPBM binding intensity (ln)": 8.98}
{"sequence": "AGGAAATTTGTTATTGCACACAAATTTTTCTTTTTT [CACACA_site8732]", "gcPBM binding intensity (ln)": 9.48}
{"sequence": "AATGTCAGTATGCGAGGTACACGTATAAAAATTACA [XGTACX_site4109]", "gcPBM binding intensity (ln)": 6.54}
{"sequence": "TATTATAATAAACCTATACACACATAAATAAATAAA [GTGCAC_negctrl_site627]", "gcPBM binding intensity (ln)": 7.05}
{"sequence": "TTTTACTAAATATATACACACATTATACAGATATAT [CACACA_site5765]", "gcPBM binding intensity (ln)": 6.67}
{"sequence": "TACATAAATTAAAACACACACACACTAGAAAAAAAA [CACACA_site5278]", "gcPBM binding intensity (ln)": 7.16}
{"sequence": "ACATATATATATATGTGTACATATTTATACAACAAT [XGTACX_site6660]", "gcPBM binding intensity (ln)": 7.03}
{"sequence": "TTTTAAATTGGAGTGGGCAGATTGATATTATTCTTC [GTGCAC_negctrl_site191]", "gcPBM binding intensity (ln)": 6.56}
{"sequence": "AAAAATAAAATATATACACACATATATATATATATA [CACACA_site2943]", "gcPBM binding intensity (ln)": 9.48}
{"sequence": "TTTTTAATTTTGTGGGTGCTTTCGTGTTATTATATA", "gcPBM binding intensity (ln)": 7.23}
{"sequence": "TTTTTTTTTTCTCTCGCACACATTTTTTAAAATGAG [CACACA_site2607]", "gcPBM binding intensity (ln)": 7.06}
{"sequence": "AGTAGGCATATTGGTTGTACAAAAAAATTATGCACC [XGTACX_site8925]", "gcPBM binding intensity (ln)": 10.6}
{"sequence": "GACTCTTAAAAAATTTGTACCCACATAAATAATATA [XGTACX_site4313]", "gcPBM binding intensity (ln)": 6.29}
{"sequence": "ATATTTATATAGATGTGTACATAAATATAATAACAT [XGTACX_site1681]", "gcPBM binding intensity (ln)": 6.82}
{"sequence": "ATATATATATATGTTTATTTATTTGAACGATTGTGG [CACACA_negctrl_site828]", "gcPBM binding intensity (ln)": 9.04}
{"sequence": "TTTGGGTATACACATACATGCATGTCCTTATATATA [TGCATGCA_site84]", "gcPBM binding intensity (ln)": 7.46}
